About 7,500 (2.1%) of roughly 360,000 compounds were called active. This list was built around the results that the source calls inconclusive (neither active nor inactive); the mix of calls is not that of the screen. Calls come from the whole dose curve; as a rule, active = well fitted cell-killing curve with a large enough effect; inconclusive = small, poorly fitted or top-dose-only effect, or effect the other way, or another doubt; inactive = no such curve, though single readings can be large or run the other way. No potency is given beside an inconclusive call; the fits are too rough.
Test: qHTS for induction of synthetic lethality in tumor cells producing 2HG: qHTS for the HT-1080-IDH1KD cell line
Conditions: HT-1080 IDH1 knockdown viability, ATP luminescence, 48 h; series mostly up to 46.1 µM
How it was run: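 CellTiter-Glo luminescence after 48 h compound exposure at 37 degrees C of IDH1-knockdown HT-1080 cells in 5% FBS RPMI. %Activity scaled between DMSO wells and cell-free media wells, with curves fitted and assigned curve classes.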
Potency is the fitted concentration of half-maximal effect; tags give direction and shape of the fitted curve.

Structure (SMILES) | Potency
CN(C)c1ccc(CN(C(=O)C2COc3ccccc3O2)C2CCS(=O)(=O)C2)cc1 (centres undefined) | inactive
CC1(C(=O)NCc2ccccc2)Cc2c(-c3cccc(C(N)=O)c3)ccnc2O1 (centres undefined) | inconclusive [cytotoxic, full curve]
Cc1ccn2c(NC3CCCCC3)c(C)nc2c1 | inconclusive [cytotoxic, single point]
COc1cc2oc(=O)cc(-c3ccc(-c4ccc(N(C)C)cc4)cc3)c2c(OC)c1OC | inactive
c1coc(-c2nc(-c3ccco3)c(-c3ccco3)nc2-c2ccco2)c1 | inconclusive [cytotoxic, single point]
O=C(Cc1csc(Nc2nc(=S)[nH]c3ccccc23)n1)NCCCN1CCN(c2cccc(Cl)c2)CC1 | active: 20.6 µM
N#Cc1c(NC(=O)c2cc(-n3cnnc3)ccc2Cl)sc2c1CCCC2 | inconclusive [cytotoxic, single point]
O=C(CC1C(=O)NCCN1Cc1c(F)cccc1Cl)NCCCN1CCCC1=O (centres undefined) | inactive
CCn1nnnc1SCC(=O)N(C)C1CCS(=O)(=O)C1 (centres undefined) | inactive
Cc1ccc(S(=O)(=O)N2CCN(C(=O)c3c(-c4ccccc4)noc3C)CC2)cc1 | inactive
COC(=O)C[C@H]1c2cc(C(F)(F)F)ccc2S(=O)(=O)N1Cc1ccccc1 | inactive
O=C(Nc1nc2n(n1)C(c1ccccc1)C=C(c1ccccc1)N2)c1ccco1 (centres undefined) | inactive
COc1cc2c(cc1OC)C(C)N(C(=O)c1cc(Cl)nc(Cl)c1)CC2 (centres undefined) | inconclusive [cytotoxic, full curve]
COc1ccccc1CNC(=O)CCc1cn(C)c2ccccc12 | inactive
O=C(COc1ccc(/C=N/NC(=O)c2cccnc2)cc1)Nc1ccccc1 | inconclusive [cytotoxic, single point]
Cc1onc(-c2ccccc2)c1C(=O)NCc1cccs1 | inactive
Cc1nc(N2N=C(c3ccc(Cl)cc3)CC2c2ccco2)sc1C(=O)N(C)C (centres undefined) | inconclusive [cytotoxic, single point]
CCN(CC)S(=O)(=O)c1ccc(NN)nc1 | inconclusive [cytotoxic, single point]
C=CCC[C@H](Cc1ccc(F)cc1)C(=O)OC[C@@H](C)NC(=O)[C@H](CC=C)CC(=O)N(CCO)Cc1ccccc1 | inactive
CC(C)C[C@H]1CN(CCCC[C@H]2CNC(=O)C(=O)N2Cc2ccccc2)C(=O)C(=O)N1CCc1ccc(O)cc1 | inconclusive [cytotoxic, single point]
c1ccc(C2[C@H]3CN(Cc4cccnc4)[C@H](c4ccccc4)C34CC2(c2cccnc2)C4)cc1 (some centres undefined) | inconclusive [cytotoxic, single point]
O=C(O)/C=C\C(=O)Nc1ccccc1C#Cc1ccc(Br)cc1 | inconclusive [cytotoxic, single point]
O=C(Nc1ccc(Nc2ccccc2)cc1)c1cc([N+](=O)[O-])ccc1Cl | active: 18.4 µM

Structure (SMILES) | Potency
CCS(=O)(=O)Nc1ccc(C2=NN(C(=O)c3ccco3)C(c3ccco3)C2)cc1 (centres undefined) | active: 16.4 µM
Cc1ccc(NC(=O)COC(=O)c2ccccc2F)cc1S(=O)(=O)N1CCCCC1 | inactive
Cc1ccc(OCc2nc(-c3ccc(Cl)cc3)n[nH]2)cc1 | inconclusive [cytotoxic, single point]
O=C(CS(=O)(=O)c1ccc(Cl)cc1)NCc1ccccc1 | inactive
COc1cc(-c2nc3ccccn3c2NCc2ccccc2)ccc1SC1CCCCC1 | inconclusive [cytotoxic, single point]
O=C(NNC(=O)c1cc(-c2ccccc2)nc2ccccc12)Nc1cccc(Cl)c1 | inconclusive [cytotoxic, single point]
CCn1c(=O)cc(C(F)(F)F)[nH]c1=S | inactive
O=C(N/N=C/c1ccc(Cl)cc1)c1cc2c(s1)-c1ccccc1CC2 | inconclusive [cytotoxic, full curve]
Cc1ccc(S(=O)(=O)Nc2ccc3oc(=O)sc3c2)c(C)c1 | inconclusive [cytotoxic, single point]
CCOc1ccc(/C=N/NC(=O)c2cc3c(OC)cc(OC)cc3[nH]2)cc1OC | inconclusive [cytotoxic, single point]
CCc1cc(C(=O)N=Nc2c(O)[nH]c3ccc([N+](=O)[O-])cc23)c2ccccc2n1 | inconclusive [cytotoxic, single point]
COc1ccc(NC(=O)c2ccco2)cc1NC(=O)COc1ccccc1[N+](=O)[O-] | inconclusive [cytotoxic, full curve]
Cc1c2c(nc3c(C(=O)NC4CCCC4)cnn13)CCCC2 | inconclusive [cytotoxic, single point]
CCc1nc(N)c(C#N)c(-c2ccc(OC)c(OC)c2)c1C | inactive
CC1=CC(C)(C)NC(=S)N1c1ccc(N(C)C)cc1 | inactive
O=C(O)c1ccc(/C=N\Nc2ccc(S(=O)(=O)N3CCOCC3)cc2[N+](=O)[O-])cc1 | inactive
C=CCN1C(=O)/C(=C/c2ccc(O)cc2)S/C1=N/c1nccs1 | inconclusive [cytotoxic, single point]
CC(C)C[C@@H](COCc1ccc(C(F)(F)F)cc1)N1CCN(C(=O)c2ccc(C(F)(F)F)cc2)CCC1=O | inconclusive [cytotoxic, single point]
N#C/C(=C\C=C\c1ccccc1)C(=O)NCc1ccco1 | inconclusive [cytotoxic, single point]
COc1cc(CCN(C(=O)c2cc3ccccc3[nH]2)C(C)c2nc3ccccc3[nH]2)cc(OC)c1 (centres undefined) | inconclusive [cytotoxic, single point]
CCOC(=O)Cc1nn(Cc2nc(-c3ccc(C#N)cc3)cs2)c(=O)c2ccccc12 | inconclusive [cytotoxic, partial curve]
COc1cccc(-n2c(N)c(C(=O)Nc3c(C)n(C)n(-c4ccccc4)c3=O)c3nc4ccccc4nc32)c1 | inconclusive [cytotoxic, partial curve, poor fit]
Cc1ccc(NNC(=O)c2ccno2)cc1C | inconclusive [cytotoxic, partial curve]

Structure (SMILES) | Potency
COc1ccc(Cc2c(-c3ccc(OC)c(OC)c3)nc3c(C)cc(Br)cn23)c(C)c1 | inconclusive [cytotoxic, single point]
O=C(Nc1cc(Cl)cc(Cl)c1)N[C@@H]1CC[C@@H](CCNS(=O)(=O)c2cccc(F)c2)O[C@@H]1CO | inconclusive [cytotoxic, single point]
OC(CN1CCN(c2ccccn2)CC1)Cn1c2ccccc2c2ccccc21 (centres undefined) | inconclusive [cytotoxic, single point]
C=CCN1C(=NC(=O)COc2ccc(Cl)cc2)SC2CS(=O)(=O)CC21 (centres undefined) | inactive
CC(=O)c1c(C)[nH]c(C(=O)Nc2cccc(C(F)(F)F)c2)c1C | inconclusive [cytotoxic, single point]
CC(=O)N1CCN(c2ncnc3sc(-c4ccccc4)cc23)CC1 | inactive
O=C(O)CCC(=O)Nc1cccc(-c2nc3ccccc3o2)c1 | inactive
COc1ccc(C(=O)Nc2cccc(-c3cc4ccccc4oc3=O)c2)cc1[N+](=O)[O-] | inconclusive [cytotoxic, partial curve]
CC1=C(C(=O)N(C(C)C)C(C)C)CC(CC(=O)NCc2cccc3ccccc23)C(=O)N1Cc1ccccc1 (centres undefined) | inactive
O=C(CC(C(=O)N1CCc2ccccc21)n1ccnc1)N1CCc2ccccc2C1 (centres undefined) | inconclusive [cytotoxic, single point]
CCN(CC)c1ccc(/C=N/NC(=O)c2ccc3c(c2)OCCO3)cc1 | inconclusive [cytotoxic, single point]
O=C(O)CCSc1nc2ccccc2n1-c1ccccc1 | inconclusive [rising, partial curve]
FC(F)(F)c1cccc(N2CCN(C3CC4CCC3C4)CC2)c1 (centres undefined) | inconclusive [cytotoxic, single point]
Cc1nc(NC(=O)C2CC2)sc1C(=O)Nc1ccc(Br)cc1 | inconclusive [cytotoxic, partial curve]
CC(C)(C)c1ccc(C2CC2C(=O)N/N=C\c2ccc[nH]2)cc1 (centres undefined) | active: 1.64 µM
Cc1ccc(C(=O)NNc2nc3ccccc3nc2C(F)(F)F)cc1 | inactive
COc1ccccc1-n1cnnc1SC(C)C(=O)Nc1ccc(NC(C)=O)cc1 (centres undefined) | inactive
C=C(C)COc1ccc(-c2[nH]ncc2Oc2cccc(OC)c2)c(O)c1 | inconclusive [cytotoxic, single point]
O=Cc1cn(-c2ccccc2)nc1-c1ccc2c(c1)OCCO2 | inconclusive [cytotoxic, single point]
CCC1CCCCN1C(=S)NC(=O)c1cccc([N+](=O)[O-])c1 (centres undefined) | inactive
Cc1c(C(C)C)c(=O)n(-c2ccc(S(=O)(=O)NCc3ccccc3)cc2)n1C | inconclusive [cytotoxic, partial curve]
Oc1c(CN2CCCC(C(F)(F)F)C2)cc(Cl)c2ccccc12 (centres undefined) | inconclusive [cytotoxic, single point]
Cc1ccccc1C(=O)N1CCC(C(=O)Nc2ccc(S(=O)(=O)N3C(C)CCCC3C)cc2)CC1 (centres undefined) | inconclusive [cytotoxic, single point]

— PubChem BioAssay AID686971 (National Center for Advancing Translational Sciences (NCATS), 2013)
